Laboratory results reported in the supplement of paper PMC3334620.
The full ranking holds about 33,000 sequences; the median of “E-score (-0.5 to 0.5)” is about -0.01, and the highest 2% start at about 0.26. This is one part of the list.

These sequences were tested against Ste12 (UniProt P13574) (assay: PBM E-score (8-mer binding enrichment) (E-score (-0.5 to 0.5)); higher = stronger / more preferred TF binding; most listed sequences are background and not binding sites). Settings: protein concentration: 200 nM; construct: GST-DNA-binding domain.
Summary of the method: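 Bound GST-tagged yeast transcription factors, applied at about 100-200 nM to double-stranded universal all-10-mer Agilent arrays, were detected with fluorescent anti-GST. Scans were normalised with masliner. A modified Wilcoxon-Mann-Whitney statistic, the E-score, was assigned to each ungapped eight-base word pooled with its reverse complement by the Universal PBM Analysis Suite.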

| Sequence | PBM E-score |
| --- | --- |
| CGTAACTA | 0.0585 |
| AAAAGAGC | 0.0721 |
| ACGTCACC | 0.00053 |
| CGATAATC | -0.151 |
| GACCGTAC | -0.186 |
| CACTGAAA | 0.322 |
| ATGTCCAC | -0.0375 |
| ATCCTATA | 0.0688 |
| GTGGGACA | 0.104 |
| CAAGTCCC | -0.148 |
| CTAGGCCC | -0.112 |
| AGTCGCTA | -0.185 |
| CATAGCCA | -0.179 |
| AGCGGGTG | -0.0779 |
| GATTACAC | -0.0534 |
| GCAAGGGA | -0.0936 |
| ACCTTCAC | 0.134 |
| ATATTATC | 0.181 |
| CGAGCCAA | -0.0499 |
| CCACGGAC | -0.0718 |
| AGCGAGCA | -0.125 |
| GTCGCCTA | -0.171 |
| AGGTATTC | -0.0299 |
| ACGCGGGC | 0.067 |
| AATACGCA | 0.0688 |

| Sequence | PBM E-score |
| --- | --- |
| ACACCAGG | -0.154 |
| AAATCAAC | 0.186 |
| CTCGCTCC | 0.0967 |
| ACAACAAA | 0.152 |
| CCTCGGCA | 0.0665 |
| CTCTGGAA | -0.121 |
| ACTACTTA | 0.0589 |
| TCCCGGGA | 0.19 |
| CGAGCAAA | -0.0181 |
| AAACCGCG | 0.287 |
| CCGAGATA | -0.0199 |
| CGCTTCGA | -0.0748 |
| CAGACGAA | 0.167 |
| GGCCAGAA | 0.153 |
| ACCGAGGC | -0.115 |
| GACGGTCA | 0.00202 |
| GGTCTCGA | 0.0495 |
| ATGGAAAT | 0.0797 |
| GGCAGCGA | -0.0692 |
| GGGATACA | -0.0287 |
| AACGCGCG | 0.14 |
| CTCCGGAC | -0.0149 |
| CCACACAC | 0.064 |
| CCCCTAGA | -0.131 |
| AGAAATCA | 0.156 |

| Sequence | PBM E-score |
| --- | --- |
| AGTTCATA | 0.143 |
| CTTGCTTC | 0.0415 |
| GCGAGGAC | -0.201 |
| CGACGGAA | 0.00955 |
| GTCACAAC | 0.116 |
| ATAGGGAT | -0.0964 |
| CACTGGAC | -0.257 |
| GCGCCTGA | 0.0395 |
| AAGCACCG | -0.052 |
| AGGATAAC | -0.063 |
| ATCGATAC | 0.0976 |
| AGGCCATA | -0.245 |
| ACTTAGTG | -0.00871 |
| TAGAAAAA | 0.0605 |
| AACTATGA | 0.166 |
| GAACGTCC | -0.0356 |
| CCATCGAC | -0.077 |
| ATGGTAAC | 0.118 |
| AGCCACGA | -0.0321 |
| AGTGATGG | -0.0377 |
| CACCTGGG | -0.176 |
| AGTCTTAT | -0.0387 |
| AGTTTACG | 0.0418 |
| GTTGGTTA | -0.0651 |
| CCTAGCAG | -0.117 |

| Sequence | PBM E-score |
| --- | --- |
| CTACGCAA | -0.0688 |
| CAGCTACG | -0.253 |
| GACAGATA | -0.00214 |
| GTCATTAA | 0.124 |
| AAATGAAC | 0.154 |
| CATGCTTC | -0.0225 |
| CGCGGTCC | -0.123 |
| GATCGCAA | 0.113 |
| CAACGGCA | 0.0603 |
| GGCAGTTA | -0.00647 |
| GGGAAATA | 0.0559 |
| CTATCTGC | -0.0945 |
| CCCGCAGC | -0.106 |
| GCCACGTA | -0.16 |
| TATTAGCA | 0.108 |
| GGATAGTA | 0.0158 |
| CTGATTAC | 5e-05 |
| GTCACCGA | -0.0361 |
| CCGTAGGC | -0.133 |
| GACAGCCC | -0.085 |
| ACATGCAC | -0.0579 |
| CTCGACAC | 0.0679 |
| CTATTGGA | 0.0474 |
| CTAGGGAA | -0.00713 |
| GACTTTGA | 0.0133 |

| Sequence | PBM E-score |
| --- | --- |
| CCCAGTGA | -0.164 |
| ATAATATC | 0.0283 |
| AAGTCGGG | -0.0369 |
| CCCAGTTA | -0.171 |
| CACATGTA | 0.0686 |
| ACCGCCCG | -0.057 |
| CTGTATTA | 0.095 |
| AGTCTCAT | 0.104 |
| CGTTGGTA | -0.138 |
| CGCAATAC | 0.169 |
| GAGCATCC | -0.17 |
| AAACGCAA | 0.0977 |
| GTGCTCGA | -0.159 |
| GTGTGGTA | -0.0309 |
| AGTGCAAC | -0.0471 |
| CCATCTGC | 0.0198 |
| AACCAGAC | -0.095 |
| GCCAAATA | 0.101 |
| GTGGTGCA | -0.155 |
| GCCGATCC | -0.166 |
| GGTCGATA | 0.0867 |
| CGACTCCA | 0.0484 |
| GAGATGAC | -0.0892 |
| CCCCATCG | -0.044 |
| CGGACATA | 0.0625 |

| Sequence | PBM E-score |
| --- | --- |
| ATACGGCC | 0.141 |
| GATCCCCC | -0.0461 |
| GGAACCAA | 0.163 |
| AAGAGTGG | -0.111 |
| GGATACTA | 0.0524 |
| ACACAGGC | 0.186 |
| GAACGTTA | -0.0679 |
| GCTAAGCC | -0.137 |
| GTGCCATA | -0.138 |
| GATGATGC | -0.125 |
| TAACGCAA | 0.0707 |
| CCGCGTAG | 0.0797 |
| CCGTCCAG | -0.0267 |
| GCGCAACC | -0.155 |
| CGCAACAC | -0.0352 |
| ACGTCTAA | -0.109 |
| CCTTTTCG | 0.19 |
| ATCTAAAG | 0.0764 |
| AGTTGCCG | -0.0523 |
| CCGTTCAG | -0.0864 |
| CTTAGGCC | -0.257 |
| CTCCCCAA | 0.0954 |
| AATTATTA | 0.19 |
| CTCCTCAA | -0.0949 |
| CGCTAGCC | -0.206 |

| Sequence | PBM E-score |
| --- | --- |
| GTTCCCAA | -0.191 |
| CCGATATA | 0.058 |
| CACGGTAA | -0.0535 |
| CATTACGG | -0.0457 |
| GGTCTAGA | -0.0691 |
| GCGCATAC | -0.129 |
| GACCGGCC | -0.0562 |
| AGCCGTAT | 0.0733 |
| ATTTTGCA | 0.0521 |
| CCAGTGCC | -0.219 |
| AAATTAGT | 0.244 |
| AAAAGCCG | 0.0296 |
| ACGCAGCC | -0.134 |
| CAATTAAC | 0.181 |
| CCCGCCGG | 0.158 |
| ACGTAGTC | -0.302 |
| GAGGCAGA | -0.165 |
| CCGCGCAC | 0.045 |
| AATCAAAA | 0.222 |
| CTGTTGTA | 0.0589 |
| AAAGAACA | 0.0587 |
| TAACTTCA | 0.0907 |
